Data taken from publication PMC6919601, “Identification of Plasmodium dipeptidyl aminopeptidase allosteric inhibitors by high throughput screening” (PLoS ONE, 2019).
The whole screen tested about 110,000 compounds, of which about 230 (0.21%) showed an effect of 50% or more. This is one part of the list.

The compounds below were run against DPAP1 (Plasmodium falciparum, UniProt Q8IIJ9) (assay: primary screen, percent inhibition; read by cleavage of a fluorogenic dipeptide substrate; higher = more effect of the substance).
Sequence of DPAP1 (Q8IIJ9 whole entry, looked up): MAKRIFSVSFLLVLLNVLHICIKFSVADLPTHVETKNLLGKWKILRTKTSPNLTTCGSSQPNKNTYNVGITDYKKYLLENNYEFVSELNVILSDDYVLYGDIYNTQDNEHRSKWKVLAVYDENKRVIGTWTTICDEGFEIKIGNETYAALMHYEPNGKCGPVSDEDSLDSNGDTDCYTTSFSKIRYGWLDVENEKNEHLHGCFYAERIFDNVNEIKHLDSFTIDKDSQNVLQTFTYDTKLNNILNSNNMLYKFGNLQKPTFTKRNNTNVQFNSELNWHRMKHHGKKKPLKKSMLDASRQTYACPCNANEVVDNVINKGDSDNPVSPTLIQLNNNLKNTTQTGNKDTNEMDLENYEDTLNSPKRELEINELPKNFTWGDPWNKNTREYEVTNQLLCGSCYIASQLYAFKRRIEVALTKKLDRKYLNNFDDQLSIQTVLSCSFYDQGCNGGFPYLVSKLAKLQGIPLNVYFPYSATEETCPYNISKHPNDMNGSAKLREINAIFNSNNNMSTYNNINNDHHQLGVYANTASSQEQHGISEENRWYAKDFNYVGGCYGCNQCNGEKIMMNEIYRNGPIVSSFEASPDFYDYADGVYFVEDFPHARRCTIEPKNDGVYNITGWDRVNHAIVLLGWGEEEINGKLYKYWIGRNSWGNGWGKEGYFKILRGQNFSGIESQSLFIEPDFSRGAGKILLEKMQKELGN
Parameters: species or system P. falciparum D10 trophozoite lysates; single well
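Further: 30 min substrate incubation versus DMSO and 10 µM JCP410 controls.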

| SMILES | % Inhibition @ 10 uM |
| --- | --- |
| CC1CN(Cc2ccc3ccccc3c2)CC(C)O1 (stereo not drawn) | 1.9% |
| O=C(CCNC(=O)Cn1ccc2ccccc2c1=O)NCc1ccccn1 | 4.14% |
| Cc1ccc2c(n1)sc1c(O)cc(O)nc12 | 1.76% |
| O=C(NCCC1=CCCCC1)C(Cc1ccccc1)NS(=O)(=O)c1cccc2nsnc12 (stereo not drawn) | 5.21% |
| COc1ccccc1CN1CCN(c2ccccc2C)CC1 | 2.47% |
| COc1ccc(-c2nc(CS(=O)CC(=O)NCCCN3CCOCC3)c(C)o2)cc1OC (stereo not drawn) | -4.71% |
| Cc1c(Cl)cccc1-n1nnc(-c2nc(-c3cccs3)no2)c1N | 0.0603% |
| CC1CCCN(C(=O)Cc2ccccc2)C1 (stereo not drawn) | 1.9% |
| CCc1ccc(Oc2nc3c(C)cccn3c(=O)c2/C=C(\C#N)C(=O)NCC2CCCO2)cc1 (stereo not drawn) | -1.43% |
| CCN(c1ccccc1)S(=O)(=O)c1ccc(NC(=O)c2ccc(Br)o2)cc1 | -3.34% |
| COc1ccc(CN2CCN(c3ccccc3F)CC2)cc1C | -6.36% |
| CCn1cc(NC(=O)NC2CCc3ccccc32)c(=O)c2ccc(C)nc21 (stereo not drawn) | 6.92% |
| Cc1cccc2sc(NC(=O)Cc3ccccc3F)nc12 | 4.1% |
| O=C(c1ccco1)c1cn(CC(=O)N2CCOCC2)c2ccccc12 | -5% |
| CC(=O)c1ccc(NC(=O)Cn2ccnc2)cc1 | -6.71% |
| COCCNCc1c(C(=O)O)c(C)n(Cc2c(F)cccc2Cl)c1C | 10.2% |
| CCOC(=O)c1c(C)[nH]c(C)c1S(=O)(=O)N(C)CC(=O)NC1CCCc2ccccc21 (stereo not drawn) | -1.59% |
| COC(=O)c1sc(NC(=O)C2C3CCC(O3)C2C(=O)O)nc1C (stereo not drawn) | 10.8% |
| Cn1c(=O)c2c(-c3ccccc3Cl)n(CCc3ccccc3)cc2n(C)c1=O | 0.366% |
| CC(Oc1ccccc1F)C(=O)Nc1cccc(C(F)(F)F)c1 (stereo not drawn) | 3.74% |
| O=C(O)CCCCCNC(=O)Cc1ccccc1 | -5.5% |
| CCCC/N=c1/c(N2CCN(C(=O)OCC)CC2)c(O)c1=O | -3.21% |

| SMILES | % Inhibition @ 10 uM |
| --- | --- |
| COc1ccccc1NC(=O)Cc1c(OC)ccc2cc(Br)ccc12 | -5.48% |
| Cc1oc(-c2ccc(C(=O)NCCCc3ccccc3)cc2)nc1CS(=O)(=O)c1ccccc1 | -6.11% |
| COC(=O)c1ccccc1C(=O)Nc1ccc(Br)cn1 | -6.07% |
| C=Cc1ccc(Cn2c(C)c(CNCc3ccccc3)c(C(=O)O)c2C)cc1 | -9.31% |
| O=C(NCc1ccco1)Nc1cccs1 | -1.11% |
| CCOc1ccc(-c2nnc(NC(=O)C34CC5CC(CC(C5)C3)C4)s2)cc1 | 4.35% |
| Cc1ccc(S(=O)(=O)Nc2cccc(F)c2)cc1 | -1.77% |
| C=CCN1C(=O)S/C(=C\c2cc(Br)cc(OCC)c2O)C1=O | -3.09% |
| Cc1c(CNC(C)C23CC4CC(CC(C4)C2)C3)c(C(=O)O)c(C)n1Cc1ccc(Cl)cc1 (stereo not drawn) | -3.67% |
| COCC(C)NC(=O)COCc1cc(-c2ccco2)on1 (stereo not drawn) | 1.34% |
| CN(C)CCNC1CCC(C(C)(C)C)CC1 (stereo not drawn) | 1.57% |
| Cc1cccc(C)c1CC(NC(=O)OCc1ccccc1)C(=O)NCC#N (stereo not drawn) | -5.04% |
| NC1=NC(=O)/C(=C\c2cc3ccccc3nc2N2CCCCC2)S1 | 0.275% |
| CC(=O)Nc1cccc(NC(=O)CSc2nc(C)c(C)c(C)c2C#N)c1 | 10.4% |
| C/C(Cl)=C/Cn1c(=O)n(C/C=C(/C)Cl)c(=O)n(C/C=C(/C)Cl)c1=O | 0.827% |
| COc1cc(CNC2CCCCC2)ccc1OCC(=O)NC(C)(C)C | 1.27% |
| CC1=C(C(=O)Nc2cccc(F)c2)C(c2cccnc2)C2=C(O)CC(c3ccccc3)CC2=N1 (stereo not drawn) | -3.46% |
| COc1ccccc1NC(=O)c1c(N)sc2c1CCCCC2 | -1.28% |
| O=C1OC(c2ccco2)=N/C1=C\c1cccc(Cl)c1Cl | 2.81% |
| Cc1ccc(SC(C)C(=O)NCC(C)C)cc1 (stereo not drawn) | 3.05% |
| NC(=O)C1CCN(CC(=O)Nc2cccnc2Cl)CC1 | 0.776% |
| Cc1nc2cc(C(=O)NCc3ccco3)ccc2n1-c1cccc(F)c1 | 1.2% |

| SMILES | % Inhibition @ 10 uM |
| --- | --- |
| CC12OC3(CCCCC3)C(C)(OC13CCCCC3)O2 | -0.736% |
| COc1ccccc1-c1nc(-c2ccc(Cl)cc2)no1 | -3.77% |
| Cc1ccccc1NC(=O)c1cccc(N2C(=O)C3C4CCC(C4)C3C2=O)c1 (stereo not drawn) | -2.18% |
| OC1CCCN(Cc2ccc(Cl)cc2Cl)C1 (stereo not drawn) | -6.47% |
| O=C(Nc1nnc(-c2ccc(Cl)cc2Cl)s1)c1ccco1 | 8.97% |
| Cc1ccccc1CSc1ncc(Cl)c(C(=O)NCc2ccc3c(c2)OCO3)n1 | -4.54% |
| CC(=O)Nc1ccc(Cc2ccc(NC(C)=O)c(C)c2)cc1C | 1.9% |
| CCO/C(O)=C1/C(C)=Nc2nc(SC)nn2C1c1ccccc1OCC (stereo not drawn) | -4.58% |
| c1ccc2c(c1)OCC(c1nnc3sc(-c4ccncc4)nn13)O2 (stereo not drawn) | 2.68% |
| NS(=O)(=O)c1ccc(CCNc2ncnc3onc(-c4ccc(Cl)cc4)c23)cc1 | -5.76% |
| CCOC(=O)C1CCN(Cc2ccc(O)cc2)CC1 | -4.61% |
| COc1ccc(C(=O)Nc2ccc(Cl)c(C(F)(F)F)c2)cc1 | -1.25% |
| Cc1ccc(-n2cccc2/C=C2/C(=N)N3C(=NC2=O)SN=C3S(C)(=O)=O)cc1 | -1.76% |
| Cc1ccc(S(=O)(=O)c2cnccn2)cc1 | 1.02% |
| Cc1ccc(C(=O)Nc2nc(-c3nnn(-c4ccc(F)cc4C)c3C)ns2)cc1 | -1.73% |
| CC(C)(C)NC(=O)CCSc1nc2cc(Cl)ccc2o1 | 1.83% |
| COc1ccc(C)cc1N(CC(=O)NCc1cccnc1)S(=O)(=O)c1ccccc1 | -4.39% |
| O=C(O)[C@@H]1CSC(c2ccc(Cl)cc2Cl)N1 (stereo partly drawn) | -3.38% |
| CN1CCN(c2ccc3nnc(CCC(=O)N4CCN(C(=O)c5ccco5)CC4)n3n2)CC1 | 5.05% |
| Cc1onc(-c2ccccc2Cl)c1C(=O)N1CCCCCC1 | 2.09% |
| CC1CN(C(=O)c2ccccc2Cl)CCN1C(=O)c1ccccc1Cl (stereo not drawn) | 3.65% |
| Clc1ccc(CSc2nc[nH]n2)c(Cl)c1 | -4.24% |
